# Reference: the supplement of paper PMC11417369
# Some of the results follow.
# Tested on: PfAP2-HC AP2 domain (GST-tagged)
# Test: gcPBM binding intensity (ln(normalized median fluorescence intensity)); higher = stronger DNA binding
# Summary of the method: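 Each value is the highest Masliner-normalised natural-log median intensity across replicate spots of either orientation of a probe. The probes were primer-extended double-stranded 36-bp intergenic genomic sequences on an Agilent 4 × 180k array, alongside negative controls, exposed for 1 h to GST-tagged P. falciparum DNA-binding domains expressed in E. coli. Bound protein was picked up with Alexa488 anti-GST antibody and scanned at 488 nm.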
row,Sequence,gcPBM binding intensity (ln)
1,ATATGTATTTATGTATTTATGTATTTTTATATTTTT [CACACA_negctrl_site595],9.85
2,AATACGCATTTTAGTACACACTTAAAAAGTTATTTT [CACACA_site7401],9.67
3,AATTATATTAATTCTTCATTACATTTTAAAATATTA [XGTACX_negctrl_site510],9.45
4,TTCGTTATATTTTGATGTACTGATTCATATATATAT [XGTACX_site1835],9.82
5,TGCTATTATTTATGTACACACCAATTTATTTATAAT [CACACA_site6029],9.89
6,TTATAATATAAAAATAAATAAATAAATAAATAAATA [CACACA_negctrl_site1587],9.5
7,AGAGAATATTTCCACACATGCAAATGTTATATGTAA [TGCATGCA_site282],9.61
8,ATTGATTTTTAATATACACACATAAGGACCACAAAA [CACACA_site4344],10.2
9,TATACATATGTATGCACACATACATACACATAGAAT [CACACA_site3480],9.94
10,TATATTATTTAAAAAGTGCAGTTACAAGATGAACCT [GTGCAC_site9641],9.46
11,TAATATTTATTCTATTGTACATAAAATATATATATA [XGTACX_site7132],9.47
12,GGAAAGACATTACACAGTACCCAGGAAATCTACGGA [XGTACX_site2002],9.8
13,TCAACATTTAAAAATAGTACTCATAAACCTTTCGAA [XGTACX_site4111],9.42
14,ATTATATATGTATAAATATGCTATATATATATATAT [GTGCAC_negctrl_site430],9.65
15,ATAAATAAAAAACACACACACACACCCAAAAAAAAA [CACACA_site2624],10.7
16,TATCTCTCTTTCTGCTGTACATAAAAATTATATAAT [XGTACX_site5961],9.61
17,AACATATTTTTAAATACACACACATAAAAAAAAAAA [CACACA_site8279],10
18,TCTACAAGGCTTGATCGTACAATTTGAATGTATTTG [XGTACX_site7698],9.52
19,CTCAACATATACGTAACACACATATATATATATATA [CACACA_site3838],9.75
20,AAAATAACGAGTCAAACACACATATATATATATATA [CACACA_site2039],9.75
21,AGCATAAACAATTTTTGAAAAAATATACACTCATAG [CACACA_negctrl_site890],9.56
22,TATGCAAGGAACCACACACACACACCCAAATGTATA [CACACA_site750],10.5

row,Sequence,gcPBM binding intensity (ln)
1,AGATTATATATATGTATATATGTATATATTTATATA [CACACA_negctrl_site1797],9.53
2,ATTATAATAGTTAAATGTACACACTAACTACATGGA [XGTACX_site6918],9.76
3,AATTAAAAATTCAAGTGTACTTTTATATTATTATAC [XGTACX_site4106],9.6
4,ATTCGGATATATATCACACATAACTTTAATAATATA [CACACA_site5720],9.58
5,TAAATAGCCAAACGCACACCCACAAAAAAAAAAAAA [CACACA_site1554],10.3
6,TATATATAATATACATGTACAAATGTATTTAAAAAT [XGTACX_site6090],9.72
7,AGAAAATACACGCATACACACACACCCACCCACATA [CACACA_site8115],11.3
8,CAAAAAAAGAAAGCTACACACATTTATGTGCTATAT [CACACA_site2777],9.88
9,AAAAAAAATAAAAATAGTACTCAAAAAATTATGAAT [XGTACX_site3073],9.68
10,ATATTAATTTCTTATGCATGTTCTACCAAATTGTAT [TGCATGCA_site38],9.75
11,GATATGATATGATATGCATGTAACAAATTTTTTTAA [TGCATGCA_site268],9.49
12,AAAAAAAAATATATATATATATATATATTTATGTAT [GTGCAC_negctrl_site483],9.5
13,TTCTTCAATAATAAGTGTACATATGCATACATTATA [XGTACX_site1502],9.78
14,ATAATAAAATAAGAAGCACACAAATATTATATATAA [CACACA_site9319],9.94
15,AATTAAAAAATTTATGCACACTTTAAAAAAAAAAAA [CACACA_site5962],9.54
16,ATCAAATTTGGACATGCATGTGTGTGTAAAACCATG [TGCATGCA_site309],10.8
17,ATATTAGTCGAATGATGTACACACATACAAAACATT [XGTACX_site8613],10.2
18,AATTATTCTCTTTTCATTTGAACAATATGCTTAAAA [CACACA_negctrl_site995],9.59
19,AATATTTTTTAAATGTGTACATAGGTATAGCACACA [XGTACX_site8690],9.7
20,AGTCATATAAATAGTAGTACTGTGTGTGAAGAAAAA [XGTACX_site5056],10.2
21,ACACATTCGAAAAATTGTACATATATAACAGAATAT [XGTACX_site7106],9.81
22,ACAAATATGAGAAATTGTACATATAATAAAATAGTA [XGTACX_site2573],9.72
